Measured values as given in ChEMBL document CHEMBL1157539, “Thousands of chemical starting points for antimalarial lead identification” (Nature, 2010).
In all, about 13,000 compounds were measured (“IFI”: median about 4, highest 2% from about 17 on). The list shows a part of the results.

assay: GSK_TCMDC: Inhibition Frequency Index (IFI). The number of non-kinase HTS assays where a compound showed > 50 % inhibition, expressed as a percentage of the number of such assays in which the compound was tested (-0 is zero); format: functional

Row | SMILES | IFI [%]
1 | COc1ccc(Nc2nccc(N3CCC(NC(=O)c4cccc(C#N)c4)C3)n2)cc1 (stereo not drawn) | 3.08
2 | CCCOc1cc(Cc2cnc(N)nc2N)cc(OC)c1OC | 0
3 | COC(=O)c1cccc(CNCc2ccc(-c3ccc(-c4nc5cc(C(F)(F)F)ccc5[nH]4)s3)cc2)c1 | 11.5
4 | O=c1cc(NCCCNCc2sc(Br)nc2Br)[nH]c2ccccc12 | 4.48
5 | CC12CC3CC(C)(C1)CC(Nc1nc(N4CCOCC4)nc4ccccc14)(C3)C2 | 0.88
6 | COc1ccc2nc(C)cc(N/N=C/c3cccc([N+](=O)[O-])c3)c2c1 | 1.42
7 | COc1ccc2c(CCNc3nc(SC)ncc3C(=O)NCCc3ccc(F)cc3)c[nH]c2c1 | 5.61
8 | CN(C)c1cccc(-c2cnc3ccc(NCc4cccc(Cl)c4)nn23)c1 | 5.51
9 | COc1ccc(NC(=O)N2CCCN(CCCCCNC(=O)/C=C/c3ccc(C(F)(F)F)cc3)CC2)cc1Cl | 7.92
10 | Cc1cc(C(=O)NCc2ccc(-c3c(C)noc3C)cc2)n(-c2ccccc2)n1 | 2.86
11 | COc1cc2c(cc1S(=O)(=O)c1ccc(OCc3ccc(Cl)cc3)cc1)CCN(Cc1ccc(NC(C)=O)s1)CC2 | 7.14
12 | O=C(/C=C/c1ccc2ccccc2c1)NCCCCCN1CCC(c2c[nH]c3ccccc23)CC1 | 5
13 | Cc1ccc(-c2ccn(Cc3cccc(OCc4ccccc4)c3)n2)cn1.Cc1ccc(-c2ccnn2Cc2cccc(OCc3ccccc3)c2)cn1 | 0.82
14 | COc1cccc(Nc2nc(C)cc(NCc3ccc(-n4ccnc4)cc3)n2)c1 | 4.55
15 | COc1ccc(Nc2cc(C)c3cc(NC(=O)c4ccncc4)ccc3n2)cc1 | 4.11
16 | CCCCNCc1ccc(-c2nc(CN(C(=O)Nc3cc([N+](=O)[O-])ccc3F)C3Cc4ccccc4C3)cs2)cc1 | 7.59
17 | O=C(Nc1nc2ccc(Cl)cc2s1)c1csnn1 | 0
18 | CNCCNC(=O)C1Cc2c([nH]c3c(C)cccc23)C(c2ccc(Cl)c(Cl)c2)N1 (stereo not drawn) | 5.15
19 | OC1(C(F)(F)F)CC(c2ccccc2)=NN1c1nncc(-c2ccccc2)n1 (stereo not drawn) | 0
20 | Cc1noc(-c2ccc(N3CCC(C(=O)N4CCN(C(C)C)CC4)CC3)cc2)n1 | -0

Row | SMILES | IFI [%]
21 | Oc1ccc(CCNc2nc(NCc3ccccc3-c3cccc(Cl)c3)nc(N3CCNCC3)n2)cc1 | 15.4
22 | Cc1cc(N[C@@H](Cc2ccccc2)C(=O)NCc2cccc(F)c2)nc(Nc2ccccc2)n1 | 4.76
23 | Cc1cc(N2CCOCC2)nc(Nc2ccc(NC(=O)c3cccc4ccccc34)cc2)n1 | 11.3
24 | Cc1cc(C)nc(-n2[nH]c(C)c(Cc3ccc(C(C)(C)C)cc3)c2=O)n1 | 4.12
25 | CC(=O)Nc1ccc(OCCCCN(Cc2ccccc2C(F)(F)F)c2ccc(C#N)c(C(F)(F)F)c2)cc1 | -0
26 | CC(=NO)C1=C(O)C(c2ccccc2)N(c2ccccc2)C1=O (stereo not drawn) | -0
27 | Cc1cccc(CN2CCCN(Cc3ccc(C(=O)Nc4ccc(Cl)cc4)cc3)CC2)c1 | 11
28 | Cc1cccc2nc(-c3cccc(-c4cccc(NC(=O)Nc5ccc(Cl)c(Cl)c5)c4)c3)[nH]c12 | 3
29 | CC(C)CNCc1cccc(-c2cccc(CN(CCCN3CCN(C)CC3)C(=O)CCC3CCCC3)c2)c1 | 7.97
30 | CC(Cc1ccc(CN(CC(N)=O)Cc2ccc(CC(C)NCCc3cccc(Cl)c3)cc2)cc1)NCCc1cccc(Cl)c1 (stereo not drawn) | 3.65
31 | O=C(Nc1ccc(N2CCCCC2)c(Cl)c1)c1ccc(Br)o1 | 2.78
32 | Cc1ccccc1C1CCN(c2ncc(C(=O)NC3CC3)cc2Cl)CC1 | 13.6
33 | COCCN1CCC(CNCC(C)(C)c2nc(-c3ccc(Cl)c(O)c3)c(-c3ccncc3)[nH]2)CC1 | -0
34 | O=C(NCc1ccc(Cl)c(Cl)c1)c1ccc(C2CCCN(Cc3ccc4[nH]cnc4c3)C2)cc1 (stereo not drawn) | 3
35 | Cc1cccc2nc(-c3cccc(-c4ccc(NC(=O)c5ccoc5)cc4)c3)[nH]c12 | 2.68
36 | CCC1(CC)C(=O)N=C(N2CCCCC2)N(C)C1=O | 0.85
37 | CC(CNC1CCN(CCn2c(=O)ccc3ccc(F)cc32)CC1)c1ccccc1 (stereo not drawn) | 0
38 | Fc1ccc(NC(S)=NN=Cc2ccccn2)cc1 | 7.48
39 | O=C(Nc1ccccc1)c1c[nH]cn1 | 0
40 | O=C(Nc1cccnc1)c1cc(-c2cccnc2)nc2ccc(Br)cc12 | 1.56

Row | SMILES | IFI [%]
41 | O=C(NCc1ccccc1)NC1CCN(c2ccnc3cc(Cl)ccc23)C1 (stereo not drawn) | -0
42 | N#Cc1ccc(NC(=O)c2ccc(C(=O)NCCCCN3CCC(c4ccc5c(c4OCCOC4CCCCO4)CCCC5)CC3)cc2)cc1 (stereo not drawn) | 12.3
43 | CN(C)C(CNc1ncnc2cc(Cl)ccc12)Cc1ccccc1 (stereo not drawn) | 3.13
44 | Cc1ccc2c(Cl)c(C(=O)N3CC(C)OC(C)C3)sc2c1 (stereo not drawn) | 1.37
45 | CNCc1ccc(-c2ccc3ccnc(N)c3c2)cc1 | 6.86
46 | O=C1CSc2ccc(CNC3CCN(CCc4c(F)cnc5ccc(F)cc45)CC3)nc2N1 | 4.38
47 | O=C(N[C@@H](CC1CCCCC1)C(=O)NC1CC1)c1ccc(O)c(-c2cccc(C(F)(F)F)c2)c1 | 2.26
48 | CCCN1CCN(CCNC(=O)c2cccc(Nc3nccc(Nc4ccc(Oc5ccccc5)cc4)n3)c2)CC1 | 4.48
49 | COc1ccc2nccc([C@@H](O)CN3CCC(NCc4ccc5nnsc5c4)CC3)c2c1 | 2.9
50 | CCOc1cc2ncnc(Nc3ccc(OCc4ccccc4OC)c(OC)c3)c2cc1OCC | 4.35
51 | N#Cc1ccc(/C=C/C(=O)NCCCCCN2CCCN(C(=O)Nc3ccc(Cl)c(C(F)(F)F)c3)CC2)cc1 | 5.94
52 | Cc1cc(=NN=CC=Cc2ccccc2)c2ccccc2[nH]1 | 4.35
53 | CC(C)(C)NC(=O)c1ccc(Oc2ccc(OC(F)(F)F)cc2)c(NC(=O)C(C)(C)C)c1 | 0.74
54 | CCc1cc2c(O)c([N+](=O)[O-])c(=O)oc2cc1OCCCCCOc1cc2oc(=O)c([N+](=O)[O-])c(O)c2cc1CC | 17.1
55 | CCC[C@@H]([C@@H](CC1CCCCC1)C(=O)N[C@@H](CCCCNS(C)(=O)=O)C(=O)Nc1nccs1)N(O)C=O | 1.6
56 | Cc1[nH]c(C)c(-c2ccc(/C=C/c3ccccn3)cc2)c(=O)c1Cl | 0.92
57 | CN1CCC(C(=O)Nc2cccc(-c3cccc(-c4nc5cc(F)ccc5[nH]4)c3)c2)CC1 | 4.24
58 | COc1ccc(S(=O)(=O)N2CCC3(CC2)OCC(=O)NC3c2ccc(Cl)c(Cl)c2)cc1 (stereo not drawn) | 7.69
